# Assay results from PubChem BioAssay AID1347120 (National Center for Advancing Translational Sciences (NCATS), 2019).
# Screen size: about 390,000 compounds; about 930 (0.24%) were called active. Inconclusive results, whose numbers are uncertain, are shown with a selection of clear calls. Calls come from the whole dose curve; as a rule, active = well fitted activation curve with a large enough effect; inconclusive = small, poorly fitted or top-dose-only effect; inactive = no such curve, though single readings can be large or run the other way. Potencies beside an inconclusive call are fits to weak or partial responses and may not hold up.
# Assay: qHTS for Suppressors of FUS Proteinopathy: Primary screen using FUS-linked yeast assay; note: nearly all actives have a fitted effect of over 55% in size
# Conditions: S. cerevisiae FUS-expressing, OD600, 24 h; Potency: growth rescue; series mostly up to 76.6 µM
# How it was run: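 Compound concentration series was pinned onto galactose-induced FUS-expressing yeast seeded at OD 0.005. Plates sat 24hr at 30C; absorbance at 600 nm gave growth. DMSO served as background control.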
# Potency is the fitted concentration of half-maximal effect; tags give direction and shape of the fitted curve.
row,SMILES,Potency
1,CC(C)(C)OC(=O)NCCCCCNC(=O)c1[nH]cnc1C(=O)N[C@@H](Cc1ccccc1)C(=O)OC(C)(C)C,"inconclusive: 22.4 µM [activator, single point]"
2,Oc1ccc(N2CCN(c3ncnc4sc(-c5ccccc5)cc34)CC2)cc1,"inconclusive: 12.6 µM [activator, partial curve, poor fit]"
3,O=C(Nc1cc(C(F)(F)F)ccc1F)C1Cc2c(-c3ccccc3Oc3ccccc3)ccnc2O1 (configuration not stated),"inconclusive: 35.5 µM [activator, partial curve, poor fit]"
4,CC1CCN(C(=O)C2CCN(C(=O)c3cc4sccc4n3Cc3ccc(F)cc3)CC2)CC1,"inconclusive: 28.2 µM [activator, partial curve, poor fit]"
5,Cc1cc(C)c2c(n1)SCCN2C(=O)Nc1ccc(C(=O)Nc2ccc(C(C)C)cc2)cc1,inactive
6,CCN(CC)c1ccc2cc(-c3nc(-c4cc(OC)c(OC)c(OC)c4)no3)c(=O)oc2c1,inactive
7,COc1ccc(C2c3[nH]c4ccc(OC)cc4c3CCN2C(=O)Nc2ccccc2)cc1 (configuration not stated),"inconclusive: 28.2 µM [activator, single point]"
8,CN1CCC(OC(=O)c2cc3cc(Cl)cc(Cl)c3oc2=O)CC1,inactive
9,Cc1noc(/C=C/N(C)C)c1S(=O)(=O)N1CCCC(C(=O)NC2CCCCC2)C1 (configuration not stated),"inconclusive: 35.5 µM [activator, single point]"
10,N=C(N)SCc1nc2ccccc2c(=O)n1-c1ccccc1,"inconclusive: 28.2 µM [activator, single point]"
11,COc1ccccc1Cc1c(-c2ccc(OC)c(OC)c2)nc2ccc(Br)cn12,inactive
12,O=C(OCc1cn([C@H]2CN(CC3CCCCC3)[C@@H](c3ccc(Cl)cc3)C[C@@H]2O)nn1)c1ccccc1,"inconclusive: 20 µM [activator, single point]"
13,CCOc1ccc2nc(NC(=O)CN3CCC(n4nnc5cc(F)ccc54)CC3)sc2c1,"inconclusive: 50.1 µM [activator, single point]"
14,CCOC(=O)N1CCN(C(=O)c2ccccc2N(Cc2ccccc2)S(=O)(=O)c2ccc(OC)cc2)CC1,"inconclusive: 15.8 µM [activator, partial curve, poor fit]"
15,COc1cccc(OC)c1/C(O)=C(\C#N)c1nc2ccccc2[nH]1,"inconclusive: 44.7 µM [activator, partial curve, poor fit]"
16,COc1ccc(-c2noc(-c3ccc(N4CCC(C)CC4)c([N+](=O)[O-])c3)n2)cc1OC,inactive
17,CCOc1ccc(NC(=O)Cn2cc(S(=O)(=O)N3CCN(c4ccccc4F)CC3)c3ccccc3c2=O)cc1,inactive
18,O=C(Nc1ccc(S(=O)(=O)N2CCCCC2)cc1)c1ccncc1,"inconclusive: 1.41 µM [activator, full curve, poor fit]"
19,COc1ccc(C2=NOC(Cn3nc(-c4ccccc4)cc3C(=O)NCc3cccs3)C2)cc1 (configuration not stated),active: 31.6 µM

row,SMILES,Potency
1,CC(C)(C)c1ccc(C(=O)NCC(=O)OCC(=O)N2CCN(S(=O)(=O)c3ccc(Cl)cc3)CC2)cc1,"inconclusive: 28.2 µM [activator, partial curve, poor fit]"
2,NC(=O)c1c(NC(=O)CSc2nnc(-c3ccccc3)n2CC2CCCO2)sc2c1CCC2 (configuration not stated),"inconclusive: 22.4 µM [activator, partial curve, poor fit]"
3,CC(C)(C)c1ccc(C(=O)NC(Cc2c[nH]c3ccccc23)C(=O)OCC(=O)c2ccc(Cl)cc2)cc1 (configuration not stated),"inconclusive: 28.2 µM [activator, partial curve, poor fit]"
4,CCCSCCCNC(=O)c1cc2n(n1)CCCN(Cc1ccc(C)cc1)C2=O,"inconclusive: 25.1 µM [activator, partial curve, poor fit]"
5,Cc1ccc(C)c(N2CCN(C(=O)CCn3c(=O)[nH]c4ccccc4c3=O)CC2)c1,"inconclusive: 31.6 µM [activator, single point]"
6,Cc1cccc(OCCSc2nc3ccc(NC(=O)COc4ccccc4F)cc3s2)c1,inactive
7,CCCCCC(=O)NNC1=NCC(Cc2cccc(Cl)c2)S1 (configuration not stated),"inconclusive: 11.2 µM [activator, partial curve]"
8,O=C(Nc1ccccc1C(F)(F)F)OCCN1C(=O)CCC12CCC(c1ccccc1)CC2 (configuration not stated),"inconclusive: 28.2 µM [activator, single point]"
9,COc1ccc(Cn2ccc3nc(C)c(C(=O)NCc4ccc(C)cc4)cc3c2=O)cc1,"inconclusive: 50.1 µM [activator, single point]"
10,COC(=O)C1=C(C)N=C2SC(C)C(=O)N2C1/C=C/c1ccccc1OC (configuration not stated),"inconclusive: 31.6 µM [activator, partial curve, poor fit]"
11,COc1ccccc1-n1cnc2cc(NS(=O)(=O)c3ccc(Br)cc3)ccc21,"inconclusive: 14.1 µM [activator, partial curve]"
12,O=C(Nc1cc(S(=O)(=O)N2CCOCC2)ccc1N1CCCCC1)c1ccccc1Br,"inconclusive: 22.4 µM [activator, single point]"
13,CS(=O)(=O)N1CCN(c2ccccc2NC(=O)c2ccc3c(c2)OCCO3)CC1,"inconclusive: 8.91 µM [activator, partial curve, poor fit]"
14,COc1ccc(CN(Cc2ccco2)c2cnc(S(C)(=O)=O)nc2C(=O)Nc2ccc(C)c(C)c2)cc1,"inconclusive: 8.91 µM [activator, partial curve]"
15,CC(C)C[C@H](NC(=O)c1nc[nH]c1C(=O)NCCCCCNC(=O)OC(C)(C)C)C(=O)OCc1ccccc1,"inconclusive: 8.91 µM [activator, partial curve, poor fit]"
16,CCOC(=O)C(=O)Cc1nc(OCc2ccccc2)cc(OCc2ccccc2)n1,inactive
17,Cc1ccc(C)c(N2CCN(C(=O)c3ccc(N4CCCC4=O)cc3)CC2)c1,inactive
18,Cc1cccc(C)c1OCCn1c(C2CC(=O)N(Cc3ccc(F)cc3)C2)nc2ccccc21 (configuration not stated),"inconclusive: 28.2 µM [activator, single point]"
